Nonsense suppression data for 167 variants are collected here from the RNAGym collection of RNA variant scans (doi:10.1101/gad.245936.114).

This sample is rich in variants without activity.

B1: tRNA (parent)
chain: CUCUCGGUAGCCAAGUUGGUUUAAGGCGCAAGACUUUAAUUUAUCACUACGAAAUCUUGAGAUCGGGCGUUCGACUCGCCCCCGGGAGAUUUUUUCCUCGAGCAA

This series covers variants of B1. Description: nonsense suppression (GFP-seq) (ratio to wild type); higher = more function; SUP4oc tRNA, yeast GFP reporter sort-seq. A digest of the protocol:
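Yeast carrying genome-integrated SUP4oc tRNA variants from a library with ~3% random mutations were grown in raffinose/galactose medium with 80 mg/L adenine. Each strain also carried a galactose-driven GFP ochre reporter and RFP. Cells were sorted into GFP/RFP bins, and each bin was Illumina-sequenced (phred ≥30). Nonsense suppression (GFPSEQ) is the bin median GFP/RFP, weighted by each variant's estimated cell share per bin, relative to wild-type SUP4oc; variants needed ≥100 reads and ≥30 cells.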
In the case of A14U C64A A74C A87U, the nonsense suppression is not above 0.026.
For the variant G15U U55A, the nonsense suppression is not above 0.026.
Regarding A14C G15U A33G, the nonsense suppression was not above 0.026.
U20A G59U: the nonsense suppression is not above 0.026.
As for A23C G73U, the nonsense suppression was not above 0.026.
The result for U20G G65C G73C reads not above 0.026.
Consider C72G C79G G86A, for which the nonsense suppression was not above 0.026.
In the case of C1A U4G G25C, the nonsense suppression is not above 0.026.
The figure for C11A C81U C82G is not above 0.026; for A60C A87U G88A it is not above 0.026.
For G7U C29U A33G, the nonsense suppression is not above 0.026.
For the variant U20G A24U C56A A62C C77U, the nonsense suppression was not above 0.026.
Regarding G59C C75G, the nonsense suppression was not above 0.026.
Consider C11G A14U U63A G69U, for which the nonsense suppression was not above 0.026.
The figure for U8A A30G U57A G78U G86A is not above 0.026; for C1U C5A U76A it is not above 0.026; for G26U G84C it is not above 0.026.
Regarding G32A A33G G86C, the nonsense suppression is not above 0.026.
For U22C U71C C81U, the nonsense suppression was not above 0.026.
The result for C3G U20G G69A U70C reads not above 0.026.
For the variant U2A A23U U70C C72G, the nonsense suppression was not above 0.026.
Regarding G19C G59C G66C, the nonsense suppression was not above 0.026.
In the case of G6U G66C A87G, the nonsense suppression was not above 0.026.
Take C1G A74U: the nonsense suppression is not above 0.026.
Turning to C75G G85U, the nonsense suppression came to 1.12.
A23C U71A G78A: the nonsense suppression was not above 0.026.
G6U U17C: the nonsense suppression was not above 0.026.
In the case of A30C G85A, the nonsense suppression was not above 0.026.
Turning to C5A U55G U70G, the nonsense suppression is not above 0.026.
The result for C11A G88U reads not above 0.026.
For the variant G6A C81U, the nonsense suppression was 0.0651.
For U8G G61U C83A, the nonsense suppression is not above 0.026.
As to C11U G32U G69C G85C, the nonsense suppression was not above 0.026.
The result for U17G C68G reads not above 0.026; that for C1G C5U G61A U76G, not above 0.026.
Consider G7C G26A A30G, for which the nonsense suppression is not above 0.026.
The figure for A9G C64A G88U is not above 0.026; for A13U U17G C29U G84U it is not above 0.026; for G84U G88U it is not above 0.026.
On to C27G A33U, for which the nonsense suppression is not above 0.026.
The figure for G15C A31U C34U is not above 0.026; for A9G U76C G85C it is not above 0.026; for G10C G28A it is not above 0.026.
G61U C79G: the nonsense suppression is not above 0.026.
G10C A23C: the nonsense suppression was not above 0.026.
U58A U70C A74G: the nonsense suppression was not above 0.026.
Regarding C27U C29U, the nonsense suppression was not above 0.026.
In the case of A62C G67C, the nonsense suppression was not above 0.026.
With U21A A24C C29G A33C C34U G67C, the nonsense suppression is not above 0.026.
Regarding G6C U20G U55G C68U G73C C80A C81U A87C, the nonsense suppression is not above 0.026.
For the variant C1G G7U C12U A14G A23C C68U G84C, the nonsense suppression is not above 0.026.
Turning to G7A A9U A14C G73U, the nonsense suppression is not above 0.026.
As for C1U C29U C34A U55C A62G G85C, the nonsense suppression was not above 0.026.
Regarding G25A G69A C81U, the nonsense suppression was not above 0.026.
In the case of G69C A74G A89C, the nonsense suppression is not above 0.026.
The figure for C11U C29U A54C G88U is not above 0.026.
With C3U A13G U63G U76A G85C, the nonsense suppression is not above 0.026.
The figure for A13C G69C G85A A89U is not above 0.026; for G15C A30U U55G G65C G84U it is not above 0.026.
For C5G G88A, the nonsense suppression is not above 0.026.
The result for A9G C29U reads 0.2; that for A54G A60C, not above 0.026; that for U4C C29U C68G, not above 0.026.
On to A9G C29U A54G U71C, for which the nonsense suppression is not above 0.026.
A24G G25C: the nonsense suppression was not above 0.026.
Consider U2C G18U G84C, for which the nonsense suppression is not above 0.026.
Consider C12U G15A U35A, for which the nonsense suppression was not above 0.026.
Regarding C34U U58G, the nonsense suppression is not above 0.026.
Regarding C5A C64A G67A, the nonsense suppression is not above 0.026.
The figure for U57G G86A is not above 0.026; for U71C C79G G88U it is not above 0.026; for A24U A62U it is 0.0332.
Consider G59C G78C, for which the nonsense suppression was not above 0.026.
For the variant G7U A23G C82A, the nonsense suppression is not above 0.026.
The result for A14G A24U A89C reads not above 0.026; that for C1G G7C U22C G67C A87G, not above 0.026; that for C1U G61A, not above 0.026.
Turning to A13G U22G U58G G88A, the nonsense suppression was not above 0.026.
On to C27U C34A A60C A62U G65C, for which the nonsense suppression was not above 0.026.
The result for C5G U71C G85A reads not above 0.026; that for G10C G26C U57G A62G, not above 0.026.
For the variant U2A G86A, the nonsense suppression is not above 0.026.
The figure for C27U G59A is not above 0.026; for C27G U71A it is not above 0.026; for A30G G32U U63C C64G it is not above 0.026.
For the variant C27U G61A, the nonsense suppression is not above 0.026.
As for A14G U17C G61A A74C, the nonsense suppression was not above 0.026.
For the variant U35G C75U, the nonsense suppression was not above 0.026.
Consider A9G C11G G66A C72G G78A, for which the nonsense suppression was not above 0.026.
On to C5U G15A C29U, for which the nonsense suppression is not above 0.026.
Consider G18U U21G U57G G59A G61A C81G, for which the nonsense suppression was not above 0.026.
The result for A62U C64U C80G reads not above 0.026; that for U20A G25C A87G, not above 0.026; that for U4G G7A, 0.0974.
For C3G G69U, the nonsense suppression was not above 0.026.
As to A23G G59C C64G C77G G78A, the nonsense suppression was not above 0.026.
Consider U8A G18U A31G G85A A87C, for which the nonsense suppression was not above 0.026.
For the variant G18A G25U G67C, the nonsense suppression was not above 0.026.
Consider G6A U76A C80A C83G, for which the nonsense suppression is not above 0.026.
As to C5U U35C, the nonsense suppression is not above 0.026.
U4G C5G G26A G73A G85A: the nonsense suppression is not above 0.026.
Turning to U63A C79G C80U, the nonsense suppression was not above 0.026.
Turning to C12A A33G G67U, the nonsense suppression was not above 0.026.
The figure for C11G G61U is not above 0.026; for A23G G85A it is not above 0.026.
As for C5U G28C A31U, the nonsense suppression is not above 0.026.
The figure for G7C C27U U55C A87G is not above 0.026.
Turning to C3A U20C U55C, the nonsense suppression was not above 0.026.
With C5A A30C, the nonsense suppression was not above 0.026.
For G59U G86C A89G, the nonsense suppression was not above 0.026.
For C3A A9G, the nonsense suppression was not above 0.026.
For the variant C34G A54G G61C, the nonsense suppression was not above 0.026.
The result for A13U C81G reads 0.0578.
Take A13G U22A G67C U71A C82A: the nonsense suppression was not above 0.026.
Regarding G7U C12U C64G C72G, the nonsense suppression was not above 0.026.
For U2G C12A U57A C68G, the nonsense suppression was not above 0.026.
The result for U55A C75G reads not above 0.026.
U8A G25C C64G: the nonsense suppression is not above 0.026.
The result for G26A G67A A74G reads not above 0.026.
As for A9C G19U A23G G32U C34G G65C G67C G78U C81A, the nonsense suppression was not above 0.026.
As to G61U U71C C72G C80A, the nonsense suppression is not above 0.026.
Consider G32A C77A, for which the nonsense suppression is not above 0.026.
G28A G32U G69C C75G A87G: the nonsense suppression was not above 0.026.
On to G66A G73A, for which the nonsense suppression was 0.182.
The result for U2G G7C C29G G65C reads not above 0.026; that for C3U G32A G67U G69C, not above 0.026; that for G61A A89G, 0.0396.
In the case of G6U U16C A87U, the nonsense suppression is not above 0.026.
Regarding C3G C5A C34A U70G G73U G84U, the nonsense suppression was not above 0.026.
With G25U U58A, the nonsense suppression was not above 0.026.
For U17C G66A, the nonsense suppression was not above 0.026.
The figure for C3G G85U is 0.0369; for G18A C82A it is not above 0.026.
In the case of C3U G32A G84U, the nonsense suppression was not above 0.026.
Take U2A C34G G85C A89C: the nonsense suppression is 0.25.
In the case of U2G G18U C34G, the nonsense suppression is not above 0.026.
As for G88U A89G, the nonsense suppression is not above 0.026.
With A14C A30G G61A G67A, the nonsense suppression is not above 0.026.
The figure for C83A G85C is not above 0.026; for G19U G61A U63C it is not above 0.026.
Turning to A24U A30C G66U, the nonsense suppression is not above 0.026.
For the variant U8G A24G A33U U63C U70A, the nonsense suppression was not above 0.026.
In the case of G19C G65A U71G, the nonsense suppression was not above 0.026.
Consider C12A G28C G61A A62C, for which the nonsense suppression was not above 0.026.
For the variant C11G U20G U71C, the nonsense suppression is not above 0.026.
On to G10A A33G C75G, for which the nonsense suppression was not above 0.026.
In the case of G15U A30G U63G, the nonsense suppression was not above 0.026.
The figure for A31C A89G is not above 0.026; for G26A G85C it is not above 0.026; for A62C U70G it is not above 0.026.
The figure for C12G A60C G66C is not above 0.026; for A23C A30C G59A U76G C81U G88U it is not above 0.026.
Turning to C1G C3U G10A, the nonsense suppression was not above 0.026.
Consider G59A G84C, for which the nonsense suppression is not above 0.026.
Regarding G15C G18A A31U A62U, the nonsense suppression was not above 0.026.
The result for A31C A62C reads not above 0.026; that for U16G U17G A30C U70G G84C, not above 0.026.
A13G G88C: the nonsense suppression was not above 0.026.
U8C G15A A31G G86C: the nonsense suppression is not above 0.026.
Consider C12A A23G C27G, for which the nonsense suppression was not above 0.026.
The result for C1U G26A reads not above 0.026.
Turning to C3U A14G G19A A33G A74C, the nonsense suppression was not above 0.026.
C11A A33G C77A C81G: the nonsense suppression is not above 0.026.
Consider U55A, for which the nonsense suppression is not above 0.026.
For C11A C12A, the nonsense suppression is not above 0.026.
Regarding C3U G10A C27A C64U G88C, the nonsense suppression was not above 0.026.
Turning to C77U G88C, the nonsense suppression is not above 0.026.
